Data from PubChem BioAssay AID1745853 (National Center for Advancing Translational Sciences (NCATS), 2022).
Where “and” joins values, the source holds several entries; their conditions need not be identical. Equal values may be shown once. This is one part of the list. Shown are side measurements of this screen, not its main read-out; they come without a call. Peptide text beside a SMILES is read from it. * marks the point of attachment. Cbz = O=C(OCc1ccccc1)*

Legend:
Assay in all cases: Primary Screen for Target Class Profiling of Small Molecule Inhibitors of Methyltransferases
[1] = biological target: Glycine N-methyltransferase (Homo sapiens) (UniProt Q14749); details: purified enzyme, MTase-Glo SAH luminescence; measured here: GNMT inhibition; at 40 µM; stronger effect = lower value
How it was run: (§1)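 Each enzyme was reacted with SAM and its substrate, with compounds tested once at 40 uM; SAH formed was read by MTase-Glo luminescence.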

[2] = biological target: Guanidinoacetate N-methyltransferase (Homo sapiens) (UniProt Q14353); details: purified enzyme, MTase-Glo SAH luminescence; measured here: GAMT inhibition; at 40 µM; stronger effect = lower value
How it was run: as §1

[3] = biological target: Histamine N-methyltransferase (Homo sapiens) (UniProt P50135); details: purified enzyme, MTase-Glo SAH luminescence; measured here: HNMT inhibition; at 40 µM; stronger effect = lower value
How it was run: as §1

[4] = biological target: Nicotinamide N-methyltransferase (Homo sapiens) (UniProt P40261); details: purified enzyme, MTase-Glo SAH luminescence; measured here: NNMT inhibition; at 40 µM; stronger effect = lower value
How it was run: as §1

[5] = biological target: Phenylethanolamine N-methyltransferase (Homo sapiens) (UniProt P11086); details: purified enzyme, MTase-Glo SAH luminescence; measured here: PNMT inhibition; at 40 µM; stronger effect = lower value
How it was run: as §1
% is scaled to controls: 0 for no effect and ±100 for the full control effect.

SMILES | activity change, negative = inhibition [1] | activity change, negative = inhibition [2] | activity change, negative = inhibition [3] | activity change, negative = inhibition [4] | activity change, negative = inhibition [5]
O=C(c1ccc(-c2ccc(N3CCCCCC3)nc2)cc1)N1CCCC1 | -10.3% | -6.17% | -17.6% | -22% | -25.5%
CNC(=O)[C@@H]1CN(C(=O)c2cccc(C)n2)C[C@H]1COC | -1.98% | -2.5% | -1.71% | -6.18% | -3.07%
CC(C)OCCCn1c(=O)c2ccccc2n2c(CCC(=O)NCc3ccc4c(c3)OCO4)nnc12 | 2.76% | -6.17% | 9.89% | 4.42% | -4.31%
CCCn1c(=O)c2ccc(C(=O)NC(C)C)cc2n2c(=O)n(CC(=O)N(C)c3ccccc3)nc12 | 1.87% | 0% | -0.67% | 0.7% | 1.79%
Cc1ccc(C2(O)CCN(C(=O)CCC3NC(=O)NC3=O)CC2)nc1 (stereo not drawn) | -6.27% | -7.41% | -1.98% | -10.2% | -6.8%
Cc1ccc(NC(=O)CSc2nnc3n(CC(C)C)c(=O)c4ccccc4n23)c(Cl)c1 | -5.67% | 0% | 9.64% | 0.845% | 3.82%
O=C(c1ccncc1)N1CC(Oc2ccc(-c3noc(-c4ccccc4)n3)cc2)C1 | -1.28% | 1.68% | 2.04% | -0.137% | 2.67%
CC(C)[C@H](NC(=O)OCc1ccccc1)C(=O)N[C@H](C=O)Cc1ccccc1 (Cbz-Val-Phe-aldehyde) | 3.7% | 12.1% | 6.27% | -4.25% | 1.08%
Cc1cc2occ(CC(=O)N3CC[C@](C)(O)[C@@H](O)C3)c2cc1Cl | -2.18% | -1.45% | -0.461% | -3.09% | -3.61%
CC(=O)Nc1c2n(c3ccc(F)cc13)CC(C)(C(=O)NC1CCCC1)N(C1CCCC1)C2=O (stereo not drawn) | -4.91% | 2.48% | -6.72% | -9.82% | -6.14%
COc1cc(C(C)C)c(Oc2cnc(N)nc2N)cc1I | -3.72% | -4.36% | 2.77% | -28.8% | -1.37%
O=C(CCCCCN1CCN(c2ccccc2-c2ccccc2)CC1)NC1CCCc2ccccc21 (stereo not drawn) | -3.81% | 10.9% | -2.57% | -6.72% | 5.87%
Cc1cccc(C(C)(C)C)c1NC(=O)N1CCN2C(=O)CNC(=O)C2C1 (stereo not drawn) | -2.81% | -3.33% | -2.26% | -8.24% | 9.98%
C=C1CCC(OC(C)=O)C2(C)CC3(O)OC(=O)C(C)=C3CC12 (stereo not drawn) | -0.454% | 1.59% | 5.3% | -10.2% | 4.07%
CN1CCN(c2ccc(-c3cc4c(ccn4C)c(C(=O)NCCC(N)=O)n3)cc2)CC1 | -8.16% | -7.4% | -5.08% | -17% | -14.7%
O=c1[nH]c(C2CCCN([S+](=O)([O-])c3cccc(C(F)(F)F)c3)C2)nn1-c1ccccn1 (stereo not drawn) | -8.26% | -4.1% | -3.46% | -7.27% | 11.5%
CCC(C)NC(=O)C1COC2(CCC(C)CC2)N1C(=O)c1cccc(C)c1 (stereo not drawn) | -0.31% | -0.403% | -0.499% | -0.494% | 2.19%
CCOC(=O)c1cc2n(n1)CC(C)(C(=O)NCCCOC)N(c1ccc3c(c1)OCO3)C2=O (stereo not drawn) | 6.27% | 0.719% | 8.44% | 7.24% | 5.06%
Cc1ccc(C)c(N2C(=O)c3cc(C(C)(C)C)nn3CC2(C)C(=O)NCc2ccccc2)c1 (stereo not drawn) | 9.58% | 1.7% | 6.05% | 11.2% | 3.65%
O=C(Cn1nc2n(Cc3ccccc3)c(=O)c3ccccc3n2c1=O)Nc1ccc2c(c1)OCO2 | -2.31% | 2.48% | 0.973% | -4.87% | -0.115%

SMILES | activity change, negative = inhibition [1] | activity change, negative = inhibition [2] | activity change, negative = inhibition [3] | activity change, negative = inhibition [4] | activity change, negative = inhibition [5]
COc1ccccc1NC(=O)Cn1nc2n(CCCOC(C)C)c(=O)c3ccccc3n2c1=O | 5.02% | 0% | 6.9% | 6.33% | 5.48%
CCOC(=O)C1CCCN(c2nc3c(S(=O)(=O)c4ccc(C)c(C)c4)nnn3c3ccccc23)C1 (stereo not drawn) | -11.1% | 1.05% | 1.81% | -1.74% | -1.28%
CC1CCC2C(C)(C)C(O)CCC2(C)C12Cc1c(O)cc3c(c1O2)C(N)=NC3 (stereo not drawn) | 4.45% | 9.77% | 10.1% | -19.8% | 0.493%
Cc1ccc(CNC(=O)CCc2nnc3n(CCC(C)C)c(=O)c4ccccc4n23)cc1 | -6.25% | 4.13% | 1.18% | -2.55% | -5.09%
Cc1ccc(S(=O)(=O)c2nnn3c2nc(N2CCC(N4CCCCC4)CC2)c2ccccc23)cc1C | -2.43% | -0.663% | -87% | -5.61% | -6.4%
COc1ccccc1CN1C(=O)c2cc3sccc3n2CC1(C)C(=O)NC1CCCCCC1 (stereo not drawn) | -1.6% | 3.56% | -2.3% | -1.22% | -6.13%
O=S(=O)(NCCN1CCOCC1)c1ccc(Cc2ccc(S(=O)(=O)NCCN3CCOCC3)cc2)cc1 | -0.102% | 0% | 10.2% | 2% | 3.53%
O=C1NC(=O)c2cc(Nc3ccccc3)c(Nc3ccccc3)cc21 | -23% | -6.34% | -13.8% | -20.7% | -12.6%
CNc1cc(C2CC(Nc3nc(N)nc(C)c3Cl)C2)nc(COC)n1 (stereo not drawn) | -6.14% | 0.199% | -3.93% | -6.86% | -0.186%
CC(C)CCNC(=O)C1(C)Cn2c(ccc2-c2ccco2)C(=O)N1CCc1ccc(Cl)cc1 (stereo not drawn) | 0.001% | 0% | 10.9% | 7.44% | 2.55%
C#CCNC(=O)C[C@@H]1c2nc(NC(=O)OCC=C)sc2C[C@@H]2[C@](C)(CO)[C@H](O)CC[C@]21C | -5.97% | -10.7% | -6.4% | -13.7% | -16.7%
O=C(c1ccc(C2CCCNC2)cc1)N1CCC(Oc2cccc(F)c2)CC1 (stereo not drawn) | -4.66% | 3.06% | -11.9% | -3.04% | -0.661%
C[C@@H]1CC[C@]2(C)C3(C)CC[C@@]2(OC3=O)[C@@]12C[C@H](c1ccoc1)OC2=O | 0% | -3.07% | 2.17% | -16.3% | 2.91%
CCOC(=O)C1c2c(OC)ccc3c2C(=CC(C)(C)CO3)CN1C(=O)C1CC1 (stereo not drawn) | -8.72% | -8.04% | -3.81% | -19.1% | -10.1%
O=C(C1CCCN1Cc1ccc(-c2cncnc2)cc1)N1CCOCC1 (stereo not drawn) | -3.51% | -15.7% | -1.79% | -14.1% | -13.2%
Cc1cc(C(=O)Nc2nc3cccc(Cl)c3n2C2CCCCN(C(=O)/C=C/CN(C)C)C2)ccn1 (stereo not drawn) | – | 10.6% | – | -14.3% | -3.32%
O=C(/C=C/c1ccc(O)cc1)OCC1=C[C@@H](O)[C@@H]2C=CO[C@@H](O[C@@H]3O[C@H](CO)[C@@H](O)[C@H](O)[C@H]3O)[C@H]12 | 0% | 3.75% | 3.92% | -8.01% | -3.07%
CCCc1cc2c(-c3ccccc3)cc(=O)oc2cc1OCc1cc(C(=O)OC)oc1C | -9.4% | 3.67% | -4.66% | -2.15% | -6.22%
COCC(=O)NC[C@H]1CCN(Cc2scnc2C)C[C@H]1N(C)C | -5.06% | -5.22% | -2.48% | -7.37% | -4.98%
CCOc1ccccc1NC(=O)Nc1cccc(-c2ccc(N3CCCC3)nn2)c1 | -10.3% | -11.7% | -18.1% | -21.5% | -15.9%

SMILES | activity change, negative = inhibition [1] | activity change, negative = inhibition [2] | activity change, negative = inhibition [3] | activity change, negative = inhibition [4] | activity change, negative = inhibition [5]
N[C@H]1CO[C@H]2[C@@H]1OC[C@@H]2n1cc(-c2ccccn2)nn1 | -37.7% | -26.8% | 1.93% | -9.79% | -35.4%
COc1ccc(/C=C/C(=O)O[C@@H]2[C@@H](O)[C@H](C)O[C@@H](OC3C4C=COC(O[C@@H]5O[C@H](CO)[C@@H](O)[C@H](O)[C@H]5O)C4C4(CO)OC34)[C@@H]2O)cc1OC (stereo partly drawn) | 1.99% | 8.34% | 6.44% | -4.9% | 6.49%
CCc1cc2c(cc3n2CC(C)(C(=O)NC2CCCCC2)N(c2ccc(OC)c(OC)c2)C3=O)s1 (stereo not drawn) | 1.7% | 4.47% | -1.21% | -0.476% | -3.3%
CCOc1ccc(CN2C(=O)c3nc4ccccc4n3CC2(C)C(=O)NC2CCCCC2)cc1 (stereo not drawn) | -4.39% | 3.01% | -1.13% | 2.09% | -5.08%
O=C(CSc1nnc2n(Cc3ccc(F)cc3)c(=O)c3ccccc3n12)Nc1ccccc1F | 0.764% | 0% | 4.35% | -1.71% | 2.98%
CC(C)OC(=O)C(C)Oc1ccc2c(-c3ccccc3)cc(=O)oc2c1 (stereo not drawn) | -5.71% | 3.28% | -3.95% | -7.45% | -7.78%
O=C(O)CCc1ccc(NCc2cccc(Oc3ccccc3)c2)cc1 | -20.9% and -11.9% | -2.87% and -6.87% | -3.64% and 3.78% | -16.1% and -22.7% | -8.6% and -15%
C[C@@H]1CC2OC(=O)C3=C2C(CCC3O)[C@@]12C[C@@H](c1ccoc1)OC2=O (stereo partly drawn) | -0.74% | 3.78% | 5.6% | -9.84% | 6.19%
CC(=O)Nc1c2n(c3ccccc13)CC(C)(C(=O)NC1CCCC1)N(Cc1ccccc1Cl)C2=O (stereo not drawn) | -6.01% | 0.085% | -7.52% | -1.89% | 0.638%
O=C1NCC2(CCN(CCc3ccccc3)CC2)O1 | 6.81% | 14% | 5.27% | -4.03% | 4.42%
O=c1c2ccccc2n2c(-c3cc(Br)cs3)nnc2n1Cc1ccc(F)cc1 | 2.63% | 0.185% | 5.63% | 3.77% | 1.53%
COc1ccc(NC(=O)Cn2nc3n(CCCOC(C)C)c(=O)c4ccccc4n3c2=O)cc1 | -2.04% | 6.24% | 2.51% | -5.38% | 0.019%
COc1ccc(CN2C(=O)C(=O)c3cc(S(=O)(=O)N4CCC[C@H]4COc4cccnc4)ccc32)cc1 | 7.38% | 9.77% | 6.63% | -3.28% | 3.41%
O=C(CCn1ccc2cc(S(=O)(=O)N3CCCCC3)ccc21)N1CCOCC1 | 1.39% | 4.8% | -4.14% | 2.61% | -0.181%
CCCN1C(=O)c2c(C(=O)Nc3ccccc3CC)ncn2CC1(C)C(=O)NC1CCCC1 (stereo not drawn) | 1.4% | 1.74% | 5.71% | 9.87% | 9.22%
CCOc1ccc(CCNC(=O)CCCn2ccc3cc(S(=O)(=O)N4CCCC4)ccc32)cc1 | 2.58% | 1.27% | 4.51% | -0.682% | 1.39%
CCC(C)NC(=O)c1ccc2c(=O)n(CCC(C)C)c3nn(CC(=O)c4ccccc4)c(=O)n3c2c1 (stereo not drawn) | -2.57% | -1.86% | 1.62% | -6.8% | -4.45%
C=CCNC(=O)N[C@H]1CO[C@H]2[C@@H]1OC[C@@H]2Nc1nccc(-c2cccc(F)c2)n1 | -21.4% | 0.2% | -1.5% | -4.04% | 1.13%
